Target: the molecule itself
Assay: ITC; fibril elongation; monomer titrated into sonicated seed fibril suspension; VP-ITC; 10 mM HCl, 1 mM Na2SO4; monomer 70-300 μM; several temperatures

B1: Human glucagon (peptide)
chain: not shown
notes: Monomer and sonicated seed fibrils, studied under two sets of solution conditions; source: a kind gift from Novo Nordisk
B1: binds.

Source: paper PMC7282669, “The hydrophobic effect characterises the thermodynamic signature of amyloid fibril growth” (PLoS Computational Biology, 2020)
